Results reported in PubChem BioAssay AID493208 (National Center for Advancing Translational Sciences (NCATS), 2011).
Among all 44,000 compounds or so, about 340 (0.77%) were called active. About 5% were inconclusive and are not listed. Calls follow the shape of the dose curve; as a rule, active = well fitted inhibition curve with a large enough effect; inconclusive = small, poorly fitted or top-dose-only effect; inactive = flat fitted curve, though single readings scatter. The list shows a part of the results.

experiment: Acumen qHTS Assay for Inhibitors of the mTORC1 Signaling Pathway in MEF (Tsc2-/-, p53-/-) Cells: Sytravon; conditions: phospho-rpS6 immunofluorescence/PI, 24 h; series mostly up to 38.3 µM; activity change, negative = inhibition: at the top concentration;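 also: plate controls were DMSO for no effect and rapamycin for full effect; nearly all actives have a fitted effect of over 50% in size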
Summary of the method: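 Tsc2-/-, p53-/- mouse embryonic fibroblasts (empty-vector line) exposed to compound 24 hrs at 37 C, fixed, immunostained for phospho-rpS6 and counterstained with propidium iodide. Acumen laser scanning gives % positive cells from Alexa 488/PI ratio, thresholded using 7.5 nM rapamycin; PI count gives viability.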

Activity change, negative = inhibition, inactive:
Cc1cc(C)cc(NC(=O)C2CCN(S(=O)(=O)c3cccc(-c4noc(C)n4)c3)CC2)c1 -6.77%
Fc1ccc(Br)cc1C1C=C(c2ccc(Br)cc2)Nc2nnnn21 (stereo not given) -10.5%
Cc1ccc(CNC(=O)CCCN2C(=O)COc3ccc(C)cc32)cc1 9.79%
O=C(CC1N=C2c3ccccc3N=C(SCC(=O)Nc3ccccc3F)N2C1=O)NCc1cccs1 (stereo not given) -1.17%
Cc1cccc(NC(=O)C(=O)NCCc2csc(-c3ccc(C(F)(F)F)cc3)n2)c1C -8.37%
Cc1ccc(NC(=O)c2c(NC(=O)c3ccccc3)sc3c2CCC3)cc1 -3.36%
Cc1ccc2sc(N(Cc3cccnc3)C(=O)C3COc4ccccc4O3)nc2c1C (stereo not given) 1.24%
CC1CCc2c(sc(NC(=O)c3cc(-c4ccc(F)cc4)on3)c2C(N)=O)C1 (stereo not given) 1.41%
CCc1ccc(CN(C(=O)c2cc(=O)c3ccc(C)cc3o2)C2CCS(=O)(=O)C2)cc1 (stereo not given) -8.62%
CC(C)Cn1c(=O)c2sccc2n2c(CCCC(=O)NC3CCCCC3)nnc12 0.316%
COc1cccc(CNC(=O)CCCn2nc(C)c3c(C)n(-c4ccc(C)cc4)nc3c2=O)c1OC -8.1%
COc1ccc(CNC(=O)Cn2nc(C)c3c(C)n(-c4ccccc4)nc3c2=O)cc1OC 0.277%
CCc1ccc(C2CC(=O)Oc3c2c(=O)n(C)c2ccccc32)cc1 (stereo not given) -4.88%
Cc1cccc(-c2nc(C(N)=O)c3c(n2)n(-c2ccc4c(c2)OCO4)c(=O)n3C)c1 -12.3%
CCCCc1ccc(NC(=O)C2(C)Cc3ccccc3C(=O)O2)cc1 (stereo not given) -16.7%
Cn1c(=O)c2nc(SCC(=O)Nc3ccc(Cl)c(Cl)c3)n(C)c2n(C)c1=O -3.79%
Cc1cc(C)cc(NC(=O)Cn2cc(C(=O)c3ccccc3)c(=O)c3ccc(C)nc32)c1 3.6%
Cc1ccc(CN(Cc2ccco2)c2cnc(S(C)(=O)=O)nc2C(=O)Nc2ccccc2Br)o1 -0.348%
CCOC(=O)CSc1nc2ccc(NC(=O)COc3ccccc3C)cc2s1 -4.81%
Cc1ccc(-n2c3nc(=O)[nH]c(=O)c-3cc3c(C)nn(-c4ccccc4)c32)c(C)c1 0.887%
Cc1ccc(Cl)cc1NC(=O)CCS(=O)(=O)c1ccc2c(c1)n(C)c(=O)c(=O)n2C -5.15%
O=C(Nc1ccc(Cl)cc1)c1cc2c(-c3ccccc3)nn(-c3ccccc3)c2s1 -2.76%
Cc1nn(CC(=O)N2CCCCC2)c(=O)c2cc3occc3n12 1.59%
CC(NC(=O)C1CCN(S(=O)(=O)c2ccc3nc4c(c(C(=O)O)c3c2)CCCC4)CC1)c1ccccc1 (stereo not given) 0.266%
CC(C)Cn1cc(NC(=O)NCc2ccccc2Cl)c2ccccc2c1=O 5.29%
O=C(CSc1oc(-c2ccccc2)nc1S(=O)(=O)c1ccccc1)c1ccccc1 -17.4%
Cc1ccc(NC(=O)CCS(=O)(=O)c2cc(Br)cc3c2N(C(=O)C2CC2)CC3)cc1 -4%
COc1cccc(NC(=O)c2ccc3nc(Cc4ccccc4)oc3c2)c1 3.78%
COc1ccc(-c2cc(C(=O)Nc3sc4c(c3C#N)CCCC4)no2)cc1OC -12.5%
CCc1ccc(-n2c(SCc3cccc(F)c3)nc3[nH]ncc3c2=O)cc1 -5.88%
Cc1nn(-c2ccccc2)c(OC(=O)C(C)(C)C)c1Sc1ccccc1 13.6%
Cc1ccc2nc(NCCc3ccccc3)c3nncn3c2c1 -1.99%
Cc1ccc(Cn2c(SCc3ccc(C(=O)NC4CCCC4)cc3)nc3ccncc32)cc1 -1.35%
CCn1c(=O)cc(OCC(=O)Nc2ccc(C)c(F)c2)c2ccccc21 -6.05%
Cc1ccc(-n2c(-c3ccco3)nc3c(cnn3-c3ccccc3C)c2=O)cc1 -12.6%
COC(=O)c1cc(NS(=O)(=O)c2cc(Br)cc3c2N(C(C)=O)CC3)cc(C(=O)OC)c1 0.438%
CCCC(=O)c1ccc(OC(=O)c2c(-c3ccccc3Cl)noc2C)cc1 0%
Cc1nnc(NC(=O)C(=O)c2cc(C)n(-c3ccc(C)c(C)c3)c2C)s1 0.778%
Cc1ccc(C(=O)Nc2ccc3oc(-c4ccncc4)nc3c2)c(Cl)c1 1.7%
Cc1cccc(-n2c(=O)c3c(c4cc(C)ccc4n3C)n(CC(=O)Nc3ccc(C)cc3C)c2=O)c1 -5.38%
COc1ccc(-c2cn3c(n2)sc2cc(C(=O)Nc4cc(OC)cc(OC)c4)ccc23)cc1 -0.588%
CCc1ccc(-n2c(=O)c3cccnc3n2CC(=O)Nc2ccccc2C(F)(F)F)cc1 -16.1%
N#Cc1c(NC(=O)CS(=O)(=O)c2ccc(Cl)cc2)sc2c1CCCCC2 -0.024%
COc1ccc(-c2ccc(CCC(=O)O)n2CC(=O)Nc2cccc(C(F)(F)F)c2)cc1 -2.7%
COc1ccc(N2CCN(C(=O)c3ccc4c(Cl)c5c(nc4c3)CCCC5)CC2)cc1 -15.5%
CCOC(=O)c1c(NC(C)=O)c2c3c(sc2n1Cc1nc(-c2cccc(C)c2)oc1C)CCCC3 -11%
OCCCc1nc2n(n1)C(c1cccc(Cl)c1)C=C(c1ccccc1)N2 (stereo not given) 3.26%
COc1ccccc1-c1nc(CNC(=O)Nc2ccccc2)c(C)o1 -3.38%
COc1ccccc1C(=O)NC1=NC(c2ccc(Br)cc2)CC(=O)N1 (stereo not given) -17.5%
COc1ccc(CN2C(=O)N(c3ccc(C)cc3)C(=O)C2CC(=O)Nc2ccccc2)cc1OC (stereo not given) -9.89%
O=[N+]([O-])c1cc(-c2nc(-c3ccccc3)no2)ccc1NC1CCCC1 -18.5%
CCCc1cc(C(=O)Nc2c(C)nn(Cc3ccc(Cl)c(Cl)c3)c2C)no1 -3.54%
CCc1ccc(-c2nc(CN3CCCC(C(=O)NCc4ccc(C)cc4)C3)c(C)o2)cc1 (stereo not given) 0.0715%
CCn1cc2nc(SCC(=O)Nc3ccccc3F)n(Cc3ccc(C)cc3)c(=O)c2n1 -1.69%
COc1ccc(-c2cc3nc(C)c(CCC(=O)Nc4cccc(C(F)(F)F)c4)c(C)n3n2)c(OC)c1 -10.5%
Cc1ccc(CNC(=O)Nc2cn(CC(C)C)c(=O)c3ccccc23)cc1 5.22%
Cc1ccnc(NC(=O)c2c(C)oc3ncn(CC(C)C)c(=O)c23)c1 2.98%
CN(C(=O)Cn1cc(S(=O)(=O)N2CCN(c3ccccc3F)CC2)c2ccccc2c1=O)c1ccc(Cl)cc1 3.85%
COCC(C)NC(=O)c1cnn2c(C(F)F)cc(-c3ccccc3)nc12 (stereo not given) 4.68%
O=C(NCCCN1CCN(c2ccccc2F)CC1)c1cc2c(Cl)nc3ccccc3c2s1 0.553%
Cc1cc(C)c(NC(=O)CN2c3ccccc3S(=O)(=O)c3ccccc32)c(C)c1 -19.6%
Cc1nnc(SCc2ccccc2Cl)c2cc3sccc3n12 2.61%
O=C(Nc1sc2c(c1C(=O)Nc1ccc(Cl)cc1)CCCC2)c1cccs1 21.4%
CCCCCOc1ccc(NC(=O)Cc2csc(C)n2)cc1 -25.5%
Cc1ccc(C(=O)Nc2ccccc2C(=O)O)cc1S(=O)(=O)N1CCCCCC1 6.31%
CC(=O)c1ccc(NC(=O)c2cc(-c3ccc4c(c3)OCO4)on2)cc1 -2.78%
Cc1ccc(CN2COc3cc(C)c4c(oc(=O)c5ccccc54)c3C2)cc1 -2.75%
COc1cc(OC)c(NC(=O)C(NS(=O)(=O)c2cccc3nsnc23)c2ccccc2)cc1Cl (stereo not given) 0.192%
CCOc1cc(C2NC(=O)c3c(sc4c3CCN(C)C4)N2)ccc1OC(=O)c1ccccc1Cl (stereo not given) 2.88%
COc1ccc(-c2[nH]c(-c3ccccc3)nc2SCC(=O)Nc2ccc3c(c2)OCCO3)cc1 -6.98%
CCOC(=O)c1cnc2c(ccc3ccccc32)c1Nc1ccccc1OC 4.28%
Cc1ccc(S(=O)(=O)CCC(=O)Nc2ccc(Br)cc2C)cc1 2.02%
O=C(NCCc1csc(-c2ccc(F)cc2)n1)c1cccs1 3.89%
O=C(NC1CC(=O)N(c2ccc3c(c2)OCCO3)C1)c1c(F)cccc1Cl (stereo not given) -0.979%
COc1ccc(NC(=O)Cn2c(=O)cc(C)c3c(C)nn(-c4cccc(Cl)c4C)c32)cc1OC -0.267%
COc1ccc(-c2noc(CSc3nnc(Cc4ccccc4)n3-c3ccccc3)n2)cc1OC -5.25%
CCOC(=O)c1cc(-c2ccccc2)n(CC(=O)NC2CCC(C)CC2)c1C (stereo not given) -2.24%
Cc1ccc2c(c1)c(=O)c(C(=O)c1ccc3c(c1)OCO3)cn2Cc1cccc(F)c1 -6.67%
COCCNc1oc(-c2ccc(COc3ccc(OC)cc3)o2)nc1C#N -12.4%
Cc1ccc(NC(=O)CSc2nc3ccccc3c3nc(CCc4c(C)n[nH]c4C)nn23)c(C)c1 -6.88%
Cc1ccc(-c2nn(-c3ccc(F)cc3F)c3c2cnc2c(F)cccc23)cc1 2.67%
Cc1ccccc1C(=O)Nc1nc2nc(C)c(C)c(=O)n2[nH]1 -0.204%
CCCc1nn2c(=O)cc(COC(=O)c3ccc(NC(=O)CCc4ccccc4)cc3)nc2s1 27.4%
Cc1nc2c(C(=O)O)cnn2c(C)c1Cc1ccccc1 4.58%
Cc1ccc2nc(N3CCN(c4cccc(Cl)c4)CC3)c3nnnn3c2c1 -2.78%
Cc1ccc(C(=O)CSc2ncc3c(n2)-c2ccccc2N(Cc2ccc(Cl)cc2)S3(=O)=O)cc1 2.85%
COc1cccc(NC(=O)c2sc3nc4n(c(=O)c3c2C)CCC4)c1 -3.61%
CCOC(=O)c1cccc(NC(=O)c2cc(S(=O)(=O)N3CCCC(C)C3)cn2C)c1 (stereo not given) 0%
CC1=C(C(N)=O)C(c2ccc(C)cc2)n2nc(SCc3ccccc3F)nc2N1 (stereo not given) 1.78%
CC(=O)Nc1ccccc1-c1nc2ccccc2n(CC(=O)c2ccc(Br)cc2)c1=O 0%
COc1cc(C2C(=O)N(C3CCCCC3)CC(=O)N2CCC2=CCCCC2)ccc1OC(C)C (stereo not given) 0%
COc1cccc(CNC(=O)CSc2nnc(C)c3c(C)n(-c4ccccc4)nc23)c1OC -13.9%
CCOC(=O)C1CCCN(C(=O)Cn2ncc3c(C)n(Cc4ccccc4F)c(C)c3c2=O)C1 (stereo not given) -7.49%
Cc1cc(C)cc(NC2=C(c3ccccc3)C(=O)c3ccccc32)c1 -0.0983%
COC(=O)CNC(c1ccccc1)c1cc(Br)ccc1NC(=O)c1ccccc1 (stereo not given) 15.2%
